The target in assay [1] is V5-tagged HCV NS4A (strain H77, residues 1638-1711) (Hepatitis C virus, strain H77) (UniProt P27958). Briefly: co-IP; anti-V5 immunoprecipitation from HEK293T cells transfected with V5-tagged HCV proteins for 48 hrs; western blot for endogenous Nups and Kaps; some samples treated with Kap β3/IPO5-NLS peptides or control penetratin peptides, or transfected with cNLS-GFP, 12 hrs after transfection.

For assay [2], the target named is V5-tagged HCV NS5A (strain H77, residues 1973-2416) (Hepatitis C virus, strain H77) (UniProt P27958). Described as above.

Results are given in words; binding and its absence hold for the method and conditions named. Binding seen in cells or lysates may run through a third protein. Some entries that bind do so weakly or less than the wild type.

Regarding Nup153 (from UniProt P49790-1 1-1475), the binding result is “no binding” in assay [1] and “binds” in assay [2].

Consider Nup214 (from UniProt P35658-1 1-2090), for which the binding result in assay [1] and in assay [2] was “no binding” in each case.

On to Nup62 (from UniProt P37198 1-522), for which the binding result in assay [1] and in assay [2] was “no binding” in each case.

Turning to Nup358 (from UniProt P49792 1-3224), the binding entry in assay [1] and in assay [2] was “no binding” throughout.

Regarding Nup98 (from UniProt P52948-5 1-863), the binding entry in assay [1] and in assay [2] was “no binding” in each case.

B1: Nup107 (protein, UniProt P57740-1 1-925)
chain: MDRSGFGEISSPVIREAEVTRTARKQSAQKRVLLQASQDENFGNTTPRNQVIPRTPSSFRQPFTPTSRSLLRQPDISCILGTGGKSPRLTQSSGFFGNLSMVTNLDDSNWAAAFSSQRSGLFTNTEPHSITEDVTISAVMLREDDPGEAASMSMFSDFLQSFLKHSSSTVFDLVEEYENICGSQVNILSKIVSRATPGLQKFSKTASMLWLLQQEMVTWRLLASLYRDRIQSALEEESVFAVTAVNASEKTVVEALFQRDSLVRQSQLVVDWLESIAKDEIGEFSDNIEFYAKSVYWENTLHTLKQRQLTSYVGSVRPLVTELDPDAPIRQKMPLDDLDREDEVRLLKYLFTLIRAGMTEEAQRLCKRCGQAWRAATLEGWKLYHDPNVNGGTELEPVEGNPYRRIWKISCWRMAEDELFNRYERAIYAALSGNLKQLLPVCDTWEDTVWAYFRVMVDSLVEQEIQTSVATLDETEELPREYLGANWTLEKVFEELQATDKKRVLEENQEHYHIVQKFLILGDIDGLMDEFSKWLSKSRNNLPGHLLRFMTHLILFFRTLGLQTKEEVSIEVLKTYIQLLIREKHTNLIAFYTCHLPQDLAVAQYALFLESVTEFEQRHHCLELAKEADLDVATITKTVVENIRKKDNGEFSHHDLAPALDTGTTEEDRLKIDVIDWLVFDPAQRAEALKQGNAIMRKFLASKKHEAAKEVFVKIPQDSIAEIYNQCEEQGMESPLPAEDDNAIREHLCIRAYLEAHETFNEWFKHMNSVPQKPALIPQPTFTEKVAHEHKEKKYEMDFGIWKGHLDALTADVKEKMYNVLLFVDGGWMVDVREDAKEDHERTHQMVLLRKLCLPMLCFLLHTILHSTGQYQECLQLADMVSSERHKLYLVFSKEELRKLLQKLRESSLMLLDQGLDPLGYEIQL
In the case of B1, the values for the binding entry in assay [1] and in assay [2] were “no binding” and “binds”, respectively.

B2: Nup155 (protein, UniProt O75694-1 1-1391)
chain: MPSSLLGAAMPASTSAAALQEALENAGRLIDRQLQEDRMYPDLSELLMVSAPNNPTVSGMSDMDYPLQGPGLLSVPNLPEISSIRRVPLPPELVEQFGHMQCNCMMGVFPPISRAWLTIDSDIFMWNYEDGGDLAYFDGLSETILAVGLVKPKAGIFQPHVRHLLVLATPVDIVILGLSYANLQTGSGVLNDSLSGGMQLLPDPLYSLPTDNTYLLTITSTDNGRIFLAGKDGCLYEVAYQAEAGWFSQRCRKINHSKSSLSFLVPSLLQFTFSEDDPILQIAIDNSRNILYTRSEKGVIQVYDLGQDGQGMSRVASVSQNAIVSAAGNIARTIDRSVFKPIVQIAVIENSESLDCQLLAVTHAGVRLYFSTCPFRQPLARPNTLTLVHVRLPPGFSASSTVEKPSKVHRALYSKGILLMAASENEDNDILWCVNHDTFPFQKPMMETQMTAGVDGHSWALSAIDELKVDKIITPLNKDHIPITDSPVVVQQHMLPPKKFVLLSAQGSLMFHKLRPVDQLRHLLVSNVGGDGEEIERFFKLHQEDQACATCLILACSTAACDREVSAWATRAFFRYGGEAQMRFPTTLPPPSNVGPILGSPVYSSSPVPSGSPYPNPSFLGTPSHGIQPPAMSTPVCALGNPATQATNMSCVTGPEIVYSGKHNGICIYFSRIMGNIWDASLVVERIFKSGNREITAIESSVPCQLLESVLQELKGLQEFLDRNSQFAGGPLGNPNTTAKVQQRLIGFMRPENGNPQQMQQELQRKFHEAQLSEKISLQAIQQLVRKSYQALALWKLLCEHQFTIIVAELQKELQEQLKITTFKDLVIRDKELTGALIASLINCYIRDNAAVDGISLHLQDICPLLYSTDDAICSKANELLQRSRQVQNKTEKERMLRESLKEYQKISNQVDLSNVCAQYRQVRFYEGVVELSLTAAEKKDPQGLGLHFYKHGEPEEDIVGLQAFQERLNSYKCITDTLQELVNQSKAAPQSPSVPKKPGPPVLSSDPNMLSNEEAGHHFEQMLKLSQRSKDELFSIALYNWLIQVDLADKLLQVASPFLEPHLVRMAKVDQNRVRYMDLLWRYYEKNRSFSNAARVLSRLADMHSTEISLQQRLEYIARAILSAKSSTAISSIAADGEFLHELEEKMEVARIQLQIQETLQRQYSHHSSVQDAVSQLDSELMDITKLYGEFADPFKLAECKLAIIHCAGYSDPILVQTLWQDIIEKELSDSVTLSSSDRMHALSLKIVLLGKIYAGTPRFFPLDFIVQFLEQQVCTLNWDVGFVIQTMNEIGVPLPRLLEVYDQLFKSRDPFWNRMKKPLHLLDCIHVLLIRYVENPSQVLNCERRRFTNLCLDAVCGYLVELQSMSSSVAVQAITGNFKSLQAKLERLH
As to B2, the binding result is listed as “no binding” in assay [1] and “binds” in assay [2].

B3: Kap β3/IPO5 (protein, UniProt O00410-1 1-1097)
chain: MAAAAAEQQQFYLLLGNLLSPDNVVRKQAEETYENIPGQSKITFLLQAIRNTTAAEEARQMAAVLLRRLLSSAFDEVYPALPSDVQTAIKSELLMIIQMETQSSMRKKVCDIAAELARNLIDEDGNNQWPEGLKFLFDSVSSQNVGLREAALHIFWNFPGIFGNQQQHYLDVIKRMLVQCMQDQEHPSIRTLSARATAAFILANEHNVALFKHFADLLPGFLQAVNDSCYQNDDSVLKSLVEIADTVPKYLRPHLEATLQLSLKLCGDTSLNNMQRQLALEVIVTLSETAAAMLRKHTNIVAQTIPQMLAMMVDLEEDEDWANADELEDDDFDSNAVAGESALDRMACGLGGKLVLPMIKEHIMQMLQNPDWKYRHAGLMALSAIGEGCHQQMEGILNEIVNFVLLFLQDPHPRVRYAACNAVGQMATDFAPGFQKKFHEKVIAALLQTMEDQGNQRVQAHAAAALINFTEDCPKSLLIPYLDNLVKHLHSIMVLKLQELIQKGTKLVLEQVVTSIASVADTAEEKFVPYYDLFMPSLKHIVENAVQKELRLLRGKTIECISLIGLAVGKEKFMQDASDVMQLLLKTQTDFNDMEDDDPQISYMISAWARMCKILGKEFQQYLPVVMGPLMKTASIKPEVALLDTQDMENMSDDDGWEFVNLGDQQSFGIKTAGLEEKSTACQMLVCYAKELKEGFVEYTEQVVKLMVPLLKFYFHDGVRVAAAESMPLLLECARVRGPEYLTQMWHFMCDALIKAIGTEPDSDVLSEIMHSFAKCIEVMGDGCLNNEHFEELGGILKAKLEEHFKNQELRQVKRQDEDYDEQVEESLQDEDDNDVYILTKVSDILHSIFSSYKEKVLPWFEQLLPLIVNLICPHRPWPDRQWGLCIFDDVIEHCSPASFKYAEYFLRPMLQYVCDNSPEVRQAAAYGLGVMAQYGGDNYRPFCTEALPLLVRVIQSADSKTKENVNATENCISAVGKIMKFKPDCVNVEEVLPHWLSWLPLHEDKEEAVQTFNYLCDLIESNHPIVLGPNNTNLPKIFSIIAEGEMHEAIKHEDPCAKRLANVVRQVQTSGGLWTECIAQLSPEQQAAIQELLNSA
In the case of B3, the binding entry in assay [1] is listed as “no binding”; in assay [2] it was “binds”.

For the origin of these results see PMC3814334.
